Measurements taken from publication PMC4336329 (PLoS ONE, 2015).
About 2,200 (0.71%) of roughly 310,000 compounds showed an effect of 50% or more. The effect is printed as a negative number. This is one part of the list.

These compounds were tested against human ether-à-go-go-related gene (hERG) potassium channel (human, UniProt Q12809) (assay: primary screen, population patch clamp on CHO cells stably expressing hERG).
Sequence of human ether-à-go-go-related gene (hERG) potassium channel (Q12809 whole entry, looked up): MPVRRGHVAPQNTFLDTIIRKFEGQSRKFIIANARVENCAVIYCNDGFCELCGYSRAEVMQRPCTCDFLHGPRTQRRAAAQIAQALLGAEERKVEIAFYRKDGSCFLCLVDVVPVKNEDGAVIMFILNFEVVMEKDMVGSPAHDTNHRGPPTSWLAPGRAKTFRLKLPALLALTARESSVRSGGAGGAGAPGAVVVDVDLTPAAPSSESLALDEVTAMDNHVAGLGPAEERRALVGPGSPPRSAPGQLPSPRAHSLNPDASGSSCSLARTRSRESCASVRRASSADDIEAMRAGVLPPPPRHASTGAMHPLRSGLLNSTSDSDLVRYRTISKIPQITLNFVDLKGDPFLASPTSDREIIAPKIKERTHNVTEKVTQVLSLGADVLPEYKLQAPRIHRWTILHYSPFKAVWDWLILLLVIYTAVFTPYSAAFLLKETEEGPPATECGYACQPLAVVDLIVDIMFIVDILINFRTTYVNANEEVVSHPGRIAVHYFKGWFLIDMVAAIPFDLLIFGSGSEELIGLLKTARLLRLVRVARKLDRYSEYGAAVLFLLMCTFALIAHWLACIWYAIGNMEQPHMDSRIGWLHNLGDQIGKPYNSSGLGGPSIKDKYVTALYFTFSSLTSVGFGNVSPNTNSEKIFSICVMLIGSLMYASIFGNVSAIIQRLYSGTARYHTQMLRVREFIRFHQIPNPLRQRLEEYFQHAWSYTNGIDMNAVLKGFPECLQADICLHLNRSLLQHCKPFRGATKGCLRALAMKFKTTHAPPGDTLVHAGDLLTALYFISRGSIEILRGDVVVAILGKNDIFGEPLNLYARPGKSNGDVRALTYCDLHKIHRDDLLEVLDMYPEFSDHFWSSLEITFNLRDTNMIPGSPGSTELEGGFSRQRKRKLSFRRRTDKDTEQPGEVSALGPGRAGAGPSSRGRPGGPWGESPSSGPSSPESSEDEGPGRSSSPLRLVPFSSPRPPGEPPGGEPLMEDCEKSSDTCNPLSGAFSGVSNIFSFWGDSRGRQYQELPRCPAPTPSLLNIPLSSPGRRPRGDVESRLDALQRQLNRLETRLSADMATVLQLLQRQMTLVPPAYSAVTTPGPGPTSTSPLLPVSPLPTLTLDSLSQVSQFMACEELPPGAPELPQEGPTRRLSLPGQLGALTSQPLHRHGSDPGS

| SMILES | hERG current change (%, negative = inhibition) at 1uM [%] |
| --- | --- |
| CC(=O)Cn1cnc2scc(-c3ccc(C)c(C)c3)c2c1=O | 16.6 |
| CCOC(=O)c1cnc2c(C)c(-c3ccccc3)[nH]n2c1=O | 10.3 |
| COc1ccc(N2CCN(C(CNC(=O)C(=O)NCc3ccncc3)c3ccco3)CC2)cc1 (centres unmarked) | -0.171 |
| O=C(CCc1ccccc1)C(=O)N1CCCC(C(=O)c2cccc(Cl)c2)C1 (centres unmarked) | 1.94 |
| Cc1ccccc1CCNC(=O)c1ccc(Cl)c(S(=O)(=O)N2CC(C)OC(C)C2)c1 (centres unmarked) | -6.7 |
| CC(C)C[C@H]1CN=C(Nc2ccccc2)N1CC(C)C | 7.94 |
| Cc1cccc(CN2CCN(CC(=O)NCCCN3CCCC3=O)C2=O)c1 | 11.8 |
| CSCC(=O)NC1CCCc2c1cnn2-c1ccc(C)c(C)c1 (centres unmarked) | 0.909 |
| Cc1ccc(-n2c(SCC(=O)NCc3ccco3)nnc2-c2cccnc2)c(C)c1 | -1.18 |
| Cc1coc2c1c(C)cc1oc(=O)c(CC(=O)NCCCN3CCCC3=O)c(C)c12 | -0.708 |
| Cc1ccc(NC(=O)CN2C(=O)NC3(CCCCCC3)C2=O)cc1Cl | 13.6 |
| CCCN(CCC)S(=O)(=O)c1ccc(C(=O)Nc2nnc(-c3cccc(OC)c3)o2)cc1 | 14.6 |
| Cc1cc(=O)oc2cc(OC(C)C(=O)NCCc3ccc(S(N)(=O)=O)cc3)ccc12 (centres unmarked) | 9.16 |
| Cc1ccc(/C=C/C(=O)OCC(=O)NCCN2C(=O)CSC2=O)o1 | 34.3 |
| CS(=O)(=O)N(CC(=O)Nc1ccccc1)Cc1ccc(Cl)cc1 | -4.94 |
| O=C(CNc1ccc2ccccc2c1)N/N=C/c1cc2ccccc2nc1Cl | 12.9 |
| O=C(Nc1ccc(N2CCN(C(=O)c3ccco3)CC2)cc1)c1ccc(F)cc1 | 4.54 |
| CCCOc1ncnc2c1sc1nc3c(cc12)COC(C)(C)C3 | 5.61 |
| O=C(CSc1nncs1)Nc1ccc(N2CCCCC2)cc1 | 3.47 |

| SMILES | hERG current change (%, negative = inhibition) at 1uM [%] |
| --- | --- |
| O=C(NCC#CCOCc1ccccc1)c1ccccc1 | 9.56 |
| C/C(=N\Nc1ccc(S(=O)(=O)Nc2ccc(Cl)cc2)cc1[N+](=O)[O-])c1ccc(N2CCOCC2)cc1 | 4.97 |
| Cc1cccc2c1NC(=O)C21OCC(CO)([N+](=O)[O-])CO1 (centres unmarked) | 12.8 |
| Cc1ccc(COC(=O)NCc2cccnc2)cc1 | 18.3 |
| Cc1ccc(S(=O)(=O)N(CC(=O)N/N=C/c2cccc3c2OCCO3)c2ccccc2F)cc1 | -2.22 |
| CC(=O)c1c(-c2ccccc2)[nH]c2ccccc12 | 10.9 |
| COc1ccccc1CN1CC(C(=O)NCCSc2nnnn2C)CCC1=O (centres unmarked) | 17.1 |
| CSc1ccc(/C=N/NC(=O)CN2CCN(Cc3ccccc3Cl)CC2)cc1 | 5.23 |
| CC(C)c1cccc(C(C)C)c1OCCCCN1CCCC1 | 8.11 |
| COc1ccccc1Cn1c(C)nnc1-c1cnn(C)c1N | 5.1 |
| O=C(CN1C(=O)c2ccccc2C1=O)Nc1ccccc1C(=O)NC1CCCCC1 | 8.66 |
| COc1ccc(C(C)(C)C)cc1NC(=S)NCCN1CCOCC1 | 10.3 |
| COc1ccc(-c2c(NC(=O)c3ccco3)oc3ccccc3c2=O)cc1OC | 14.5 |
| Cc1ccccc1C(=O)N(Cc1nc2ccccc2c(=O)[nH]1)C1CCCC1 | 4.04 |
| Cc1cc(C)cc(NC(=O)Cn2c(=O)oc3cc(S(=O)(=O)N4CCC(C)CC4)ccc32)c1 | 2.6 |
| CC(SC(=S)N(C)Cc1cccs1)C(=O)O (centres unmarked) | 6.51 |
| Cl.OCc1ccccc1CNCc1ccccc1 | 9.84 |
| O=C(N/N=C/c1cn(-c2ccccc2)nc1-c1ccc2c(c1)OCCO2)c1ccncc1 | 3.98 |
| CC(=O)C1C(c2ccc(OC(F)F)cc2)NC(=O)NC1(O)C(F)(F)F (centres unmarked) | 12.8 |

| SMILES | hERG current change (%, negative = inhibition) at 1uM [%] |
| --- | --- |
| O=C(NCc1ccccc1Cl)c1cnc2n(c1=O)CCS2 | 5.49 |
| CCN(CC)CC(=O)NN=C(c1ccccc1)c1ccccc1 | -78.2 |
| CN(C)Cc1ccc(F)cc1Sc1ccc(Cl)cc1Cl.Cl | 13.7 |
| CC1=NCCN1S(=O)(=O)c1cc([N+](=O)[O-])ccc1Cl | 9.27 |
| O=C(NCCCn1ccnc1)/C(=C/c1ccco1)NC(=O)c1cccs1 | -27.4 |
| CS(=O)(=O)NCCSCc1ccccc1 | -21.4 |
| O=C(Nc1cc(S(=O)(=O)N2CCOCC2)ccc1N1CCCCC1)c1ccc(Cl)cc1 | 16.4 |
| Cc1cccc(OCC(=O)Nc2ccc(C(=O)O)cc2NC(=O)COc2cccc(C)c2)c1 | 16 |
| Cc1ccc(CSc2nc3ccccc3cc2C=O)cc1 | 6.15 |
| C[C@@]12C(=O)Nc3ccc(Br)cc3C(=O)N1[C@H]1c3cc(Br)ccc3OC[C@@H]1[C@@H]2c1ccccc1 | 13.7 |
| O=C(Nc1cccn(Cc2c(Cl)cccc2Cl)c1=O)c1ccccc1Cl | 7.58 |
| O=c1[nH]c2ccc(NC(=S)Nc3ccc(F)cc3)cc2[nH]1 | 15.5 |
| COc1cccc(NC(=O)Nc2nc(SC(C)(C)C)ns2)c1 | 12.3 |
| CCOC(=O)C1(CC2CCCCO2)CCN(Cc2nccn2-c2ccc(OC)cc2)CC1 (centres unmarked) | 6.86 |
| Cc1ccc(S(=O)(=O)Nc2cc3c4c(c2)C(C)C(=O)N4CCC3)cc1 (centres unmarked) | 8.98 |
| O=C(CCCn1ncn2c(cc3occc32)c1=O)N1CCc2ccccc2C1 | -19.2 |
| COc1ccc(NC(=O)C(=O)N/N=C/c2cccnc2)cc1 | -2.94 |
| CCOC(=O)N1CCN(S(=O)(=O)c2ccc(C(=O)N(CCN(C)C)c3nc4ccc(Cl)cc4s3)cc2)CC1.Cl | 9.16 |
